Source: the supplement of paper PMC11417369
The other results are listed elsewhere or left out.

Each sequence was assayed on PfAP2-HC AP2 domain (GST-tagged) (assay: gcPBM binding intensity (ln(normalized median fluorescence intensity)); higher = stronger DNA binding).
Method in brief: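 Binding intensity is defined as the maximum Masliner-normalised natural-log median intensity across replicate spots for either probe orientation. It was measured on an Agilent 4 × 180k array of primer-extended double-stranded 36-bp intergenic genomic probes and negative controls, to which GST-tagged P. falciparum DNA-binding domains made in E. coli were applied for 1 h in 1× PBS with 1% milk, 0.2 mg/ml BSA, 0.5% salmon testes DNA and 0.03% Triton X-100. Detection was by Alexa488 anti-GST antibody and scanning at 488 nm.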

Row | Sequence | gcPBM binding intensity (ln)
1 | ACATAAAATAAATATACACACATATGTATTTATTAT [CACACA_site5648] | 9.98
2 | AAACCGAATTTACATGAATGTAAATTATGTTGTTTT [CACACA_negctrl_site1834] | 9.6
3 | CAAGAATAAAAATACAAGCACACATGTATGAAATAT [CACACA_site3214] | 10.3
4 | ATTTCTCTATAGTAATGTACAAAAAAAAGGAAAAAG [XGTACX_site2757] | 9.63
5 | AATTGCTCGATATATGCACACAGTTTTGTTATTTTT [CACACA_site8465] | 9.95
6 | AACATAAATTACTTTTTACACACTAATATAAAATAC [CACACA_site8297] | 9.7
7 | AAAACACGCGGACACACACACACACGCCCACATATA [CACACA_site7105] | 10.6
8 | ACTTTCAAGGATGTACGTACATATGTATTTTATAAC [XGTACX_site6714] | 9.75
9 | ATTTCATTAAAGATTACATGCAATTCTATATTATTT [TGCATGCA_site260] | 9.64
10 | AATTAATTTATTTTATAAATAGTTAGATCGTCATAA [GTGCAC_negctrl_site660] | 9.3
11 | AACATATTTTTTCTTAAACACACACCGATATATATA [CACACA_site8919] | 9.98
12 | AATATATATTTCTAAGATAAAACCCAAGGATAAAAA [CACACA_negctrl_site735] | 9.62
13 | TCTGTAAATATGTATACACACATATCTGATCAATAT [CACACA_site5743] | 9.96
14 | TTTTTTATGATTAACACACACACAAAAAAAAAAAAA [CACACA_site4130] | 9.89
15 | TCATGTAACCATTCATGTACTCAAAAAAAAAAAAAA [XGTACX_site1027] | 9.21
16 | AAAAAAAAAACAAATACACACGCACCCAAAAAAAAA [CACACA_site8166] | 10.2
17 | AAATGAAAGAACAGCACACATATATATTATATATAA [CACACA_site2002] | 9.93
18 | TTTTATATATATATATATATATATATATATGTATAT [CACACA_negctrl_site173] | 9.75
19 | TTATATATATGTAATTGTACTTTTAATTTTTTTTTA [XGTACX_site4357] | 9.51

Row | Sequence | gcPBM binding intensity (ln)
20 | TAATTTTTTTTAAATACACACTGAAATGTGAATTTT [CACACA_site4476] | 9.54
21 | TATTTTATAATAGGCACACATATAAAAATATATATA [CACACA_site4127] | 9.59
22 | TAATAAAGTATTTTGCGTACTTATTTTATTCTTCTA [XGTACX_site2095] | 9.64
23 | GCCCCCAAATTATGTGTGCACTTTATATTCCTGAGA [GTGCAC_site9474] | 9.85
24 | TGGCATATATATAAATGTACTTTCTTTCTATCTGTT [XGTACX_site8483] | 9.75
25 | ATTGTGTGAACAAAATGTACATTTTCTCTACATTAA [XGTACX_site1333] | 9.69
26 | AGGTCATACATAAAATGTACATATATATAAATATAT [XGTACX_site7147] | 9.72
27 | TGAACACCCAAATACACACACTCAAAAAAAAAAAAG [CACACA_site5467] | 9.93
28 | ACAAGAATACACCACGCACACACACTAGAGAAAAAA [CACACA_site9276] | 11.6
29 | ATAAAAATAAAAGACGCATGTTCTTAAAATAAGAAC [TGCATGCA_site189] | 9.66
30 | ATATATATATATAATGCACACATTATGAATTATGTA [CACACA_site3384] | 9.73
31 | AAACAAAATGGTAACACACACATATATATATATATA [CACACA_site1939] | 10.2
32 | GTGTGATCTTTTGAAAGTACATTTTTTTTTTTTTTT [XGTACX_site6311] | 9.48
33 | CTATCATATTTATGCACACAAAAATAATTAATTCGT [CACACA_site2614] | 9.82
34 | ACCTGTTCATATGATCGTACACGTCAGTTTATATGA [XGTACX_site3869] | 9.96
35 | TATTTTGAGAATAAATGTACGAATTTTATATTTAAA [XGTACX_site1336] | 9.25
36 | ATTCAAATATTAAAAAGTACAAAAAAAAAACAAAAA [XGTACX_site1174] | 9.53
37 | ATATAATTATTGATATGTACATATTTGTTCTAGTTT [XGTACX_site3012] | 9.79
38 | ACAACACTATATTACACATGCATTAAGAGAGTGAAC [TGCATGCA_site124] | 9.84

Row | Sequence | gcPBM binding intensity (ln)
39 | ACATTAAAATATGATTGTACATTTTATTATATTATA [XGTACX_site912] | 9.6
40 | ATAATTATTTTAGAAACACACAAATTAGAAAAAACA [CACACA_site3636] | 9.76
41 | TAAAATAAAAATTAAAGTACATATGTATATATATAT [XGTACX_site3984] | 9.81
42 | GAGTATTCAAGTATTAGTACATATTATATAATAAAT [XGTACX_site7630] | 9.65
43 | AATCCTTACGGACACACACACACGAATAAATAAAAA [CACACA_site4422] | 11
44 | TACAAAATGGGGAACACACACATATATAAATAAATA [CACACA_site7751] | 11.1
45 | TTTTTTTCTAATTATGCACACATATCAAAATATTCA [CACACA_site8886] | 9.74
46 | ATATTTATTATATAATGTACAAAAAAAAAAAAAAAA [XGTACX_site629] | 9.13
47 | AAATATAAAAGTATATGTACATATATATATATATAT [XGTACX_site7446] | 9.88
48 | AATAAATAGATATATACACACATATATCTATAATAT [CACACA_site6557] | 9.88
49 | CATATTCCCCCCCACACACACACACCCATACATACC [CACACA_site2303] | 10.6
50 | CGTGTGTCCCCCTTAATCATCCAATCGTTCATTTTG [CACACA_negctrl_site1008] | 9.85
51 | TATATAATGGTAAAAACACACAAATATGAAGATGTT [CACACA_site722] | 9.83
52 | AGAGGATCATAGTTATGTACACATATTTAACATAAA [XGTACX_site7232] | 9.65
53 | TCTTCATTTTTATGTGCATGTAAAATTTTTTTTTTT [TGCATGCA_site963] | 9.63
54 | GACAATAAAAAGAAAAGTACATATATAAATTAACCA [XGTACX_site7858] | 9.65
55 | TTTTTATAAAAATTATTAAAAAAATTATTTATAGCT [CACACA_negctrl_site265] | 9.22
56 | AAATATATTATTATCTTATCAATTAAAAGAATAAAC [CACACA_negctrl_site779] | 9.54
